The values that follow come from paper PMC4336329 (PLoS ONE, 2015).

The campaign covered roughly 310,000 compounds. About 2,200 (0.71%) showed an effect of 50% or more. The effect is printed as a negative number. This is one part of the list.

This assay deals with human ether-à-go-go-related gene (hERG) potassium channel (human, UniProt Q12809). Nature of the assay: primary screen, population patch clamp on CHO cells stably expressing hERG.
Chain of human ether-à-go-go-related gene (hERG) potassium channel (Q12809 whole entry, looked up): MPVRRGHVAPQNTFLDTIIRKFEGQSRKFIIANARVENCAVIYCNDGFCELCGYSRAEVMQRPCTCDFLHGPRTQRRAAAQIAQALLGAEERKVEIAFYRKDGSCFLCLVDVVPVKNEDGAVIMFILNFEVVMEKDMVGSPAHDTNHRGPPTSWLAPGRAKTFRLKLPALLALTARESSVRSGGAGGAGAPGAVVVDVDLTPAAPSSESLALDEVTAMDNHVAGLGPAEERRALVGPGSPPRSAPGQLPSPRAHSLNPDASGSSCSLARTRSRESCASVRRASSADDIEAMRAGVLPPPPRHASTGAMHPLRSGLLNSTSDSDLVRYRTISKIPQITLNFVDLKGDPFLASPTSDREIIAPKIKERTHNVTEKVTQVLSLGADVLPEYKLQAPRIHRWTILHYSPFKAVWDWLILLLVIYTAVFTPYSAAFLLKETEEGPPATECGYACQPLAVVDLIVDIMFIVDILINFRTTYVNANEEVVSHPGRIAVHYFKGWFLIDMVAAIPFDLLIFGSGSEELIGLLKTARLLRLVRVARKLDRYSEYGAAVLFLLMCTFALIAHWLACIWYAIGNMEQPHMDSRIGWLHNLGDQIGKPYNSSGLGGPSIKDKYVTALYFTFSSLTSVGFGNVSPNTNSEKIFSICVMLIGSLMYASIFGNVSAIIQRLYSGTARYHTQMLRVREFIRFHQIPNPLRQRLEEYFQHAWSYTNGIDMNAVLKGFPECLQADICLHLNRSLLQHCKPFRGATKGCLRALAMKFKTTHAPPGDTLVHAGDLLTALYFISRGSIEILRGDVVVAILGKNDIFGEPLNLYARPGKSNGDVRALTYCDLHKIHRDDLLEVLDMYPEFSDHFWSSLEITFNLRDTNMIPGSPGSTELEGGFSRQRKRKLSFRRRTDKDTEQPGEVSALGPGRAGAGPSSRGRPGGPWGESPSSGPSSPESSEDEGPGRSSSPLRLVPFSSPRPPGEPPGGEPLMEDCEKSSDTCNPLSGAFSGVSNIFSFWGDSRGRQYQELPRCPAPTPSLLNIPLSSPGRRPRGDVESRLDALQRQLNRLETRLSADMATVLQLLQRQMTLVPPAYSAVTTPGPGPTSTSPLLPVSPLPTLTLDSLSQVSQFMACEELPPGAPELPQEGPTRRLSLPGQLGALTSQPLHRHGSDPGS
Turning to `CC(OC(=O)c1cccnc1SCc1cc(=O)n2ccccc2n1)c1ccccn1` (centres unmarked), the “hERG current change (%, negative = inhibition) at 1uM” value was -5.64%. On to `COc1cccc(-n2c(C)nc3cc(C(=O)O)ccc32)c1`, for which the “hERG current change (%, negative = inhibition) at 1uM” value is on record as -2.23%. `O=C(O)C(=O)O.O=C(c1ccc([N+](=O)[O-])cc1)N1CCN(Cc2ccccc2[N+](=O)[O-])CC1`: the “hERG current change (%, negative = inhibition) at 1uM” value is recorded as -70.1%. As for `COc1cc(NC(=O)CN2C(=O)CN(C)C2=O)c(C)cc1[N+](=O)[O-]`, the figure is 19.2%; as for `CN(C(=O)c1ccc(S(=O)(=O)N2CCCCC2)cc1)C1CCS(=O)(=O)C1` (centres unmarked), -3.22%; as for `CN(C(=O)c1cccs1)c1ccccc1C(=O)O`, 12.2%. For the compound `Cc1cc(C)n(-c2nc3c(c(=O)[nH]c(=O)n3C)n2CC(C)C)n1`, the “hERG current change (%, negative = inhibition) at 1uM” value is listed as 5.84%. On to `COc1ccc(N(CC(=O)NC2CC3CCC2C3)S(=O)(=O)c2ccc(C)cc2)cc1` (centres unmarked), for which the “hERG current change (%, negative = inhibition) at 1uM” value amounted to 14.7%. In the case of `O=C(Cn1cnc2cc([N+](=O)[O-])ccc2c1=O)NC1CCS(=O)(=O)C1` (centres unmarked), the “hERG current change (%, negative = inhibition) at 1uM” value came out at 16.4%. For the compound `C=CCOc1cccc(C2C(C(=O)c3ccc(C)o3)=C(O)C(=O)N2CCCn2ccnc2)c1` (centres unmarked), the “hERG current change (%, negative = inhibition) at 1uM” value was 14.2%.

For `COCc1cc(C)nc(NCCc2ccccc2)c1C#N`, the “hERG current change (%, negative = inhibition) at 1uM” value was found to be 13.5%. Consider `O=C(C1=C[C@H](c2coc3ccccc3c2=O)C[C@H](OCCCCO)O1)N1CCN(Cc2ccc3c(c2)OCO3)CC1`, for which the “hERG current change (%, negative = inhibition) at 1uM” value is reported as -23%.

As to `COCCCn1c(SCC(=O)Nc2nnc(C)s2)nnc1-c1ccoc1C`, the “hERG current change (%, negative = inhibition) at 1uM” value was 11.3%.

On to `COc1ccc(N(CC(=O)NCCc2ccc(OC)c(OC)c2)S(=O)(=O)c2ccc(OC)c(OC)c2)cc1`, for which the “hERG current change (%, negative = inhibition) at 1uM” value turned out to be 10.9%.

On to `CCOc1ccc(-n2c(SCC(=O)NCc3ccco3)nc3c(c2=O)SCC3)cc1`, for which the “hERG current change (%, negative = inhibition) at 1uM” value was determined as 10.3%. Under `COc1c(S(=O)(=O)N2CCCCC2)ccc2c(S(=O)(=O)N3CCCCC3)cccc12` stands -4.5%; under `COC(=O)c1c(C)[nH]c(C(=O)/C=C/c2ccccc2Cl)c1C`, -4.75%; under `Br.COc1ccc(C2=CSC(/N=C/c3ccc(F)cc3)=NN2)cc1`, 15.4%. On to `CCC1CCCCN1C(=O)c1cc(-c2ccc(Cl)c(Cl)c2)on1` (centres unmarked), for which the “hERG current change (%, negative = inhibition) at 1uM” value amounted to 5.22%. Take `O=C(Cn1ccc([N+](=O)[O-])n1)NCCc1c[nH]c2ccccc12`: the “hERG current change (%, negative = inhibition) at 1uM” value is on record as 11.8%. Under `Cc1ccc(C(=O)O/N=C/C2=C(Cl)c3ccccc3CC2)cc1` stands 12.9%; under `O=C1NC(=O)C2(COC(c3cccc([N+](=O)[O-])c3)OC2)S1` (centres unmarked), 16.5%; under `CC1(C)OC(=O)C(=CNn2cnc3ccccc3c2=O)C(=O)O1`, 14.8%.

For the compound `O=C(NC(=S)Nc1cnc2ccccc2c1)c1ccccc1`, the “hERG current change (%, negative = inhibition) at 1uM” value is recorded as 11%. Regarding `CCCn1c2ccc(C)cc2c2nnc(SCCN3CCOCC3)nc21`, the “hERG current change (%, negative = inhibition) at 1uM” value came to 19%.

For `CS(C)(=O)=NS(=O)(=O)c1ccc(Cl)cc1`, the “hERG current change (%, negative = inhibition) at 1uM” value was found to be 3.86%. In the case of `Cc1cc(C)cc(OCCOc2cccc(C=C3C(=O)NC(=O)NC3=O)c2)c1`, the “hERG current change (%, negative = inhibition) at 1uM” value is recorded as 13.7%. Turning to `CC(c1ccon1)N(C)Cc1cn[nH]c1-c1ccc(-c2ccccc2)cc1` (centres unmarked), the “hERG current change (%, negative = inhibition) at 1uM” value is given as 9.01%. Regarding `CN(Cc1nc2ccccc2n1C)S(=O)(=O)c1ccc(F)cc1`, the “hERG current change (%, negative = inhibition) at 1uM” value is on record as -6.08%. Under `O=S(=O)(c1ccc(C2CCCCC2)cc1)N1CCOCC1` stands 2.03%. As for `O=C(NCC1CCCO1)c1ccc[nH]1` (centres unmarked), the figure is 6.43%. As for `O=C1CNC(=O)/C(=C/c2cccs2)N1`, the figure is 11.8%; as for `CCN1CCN(c2ccc(NC(C)=O)cc2Cl)CC1`, 10.3%; as for `CCCCn1c(N)c(N(CCOC)C(=O)CCC2CCCCC2)c(=O)[nH]c1=O`, 15%.

For the compound `COc1nnc(OC)c2ccccc12`, the “hERG current change (%, negative = inhibition) at 1uM” value is 9.19%. As to `CS(=O)(=O)NNP(=O)(NNS(C)(=O)=O)NC(=O)c1ccccc1`, the “hERG current change (%, negative = inhibition) at 1uM” value was -6.06%. As for `Cc1cccc(NC(=O)C2CCN(S(=O)(=O)c3cccc4nonc34)CC2)c1`, the figure is 8.1%; as for `CCC(Sc1ncccn1)C(=O)Nc1cc(C)on1` (centres unmarked), 14.4%. Regarding `c1ccc(CSc2nccc(-c3ccco3)n2)cc1`, the “hERG current change (%, negative = inhibition) at 1uM” value is 7.49%.

Turning to `CCOC(=O)Cn1c(C)[n+](CC(=O)c2ccccc2)c2ccccc21.[Br-]`, the “hERG current change (%, negative = inhibition) at 1uM” value turned out to be 13.1%.

With `CC(OC(=O)CN1C(=O)c2ccccc2C1=O)C(=O)NC1CCCCC1C` (centres unmarked), the “hERG current change (%, negative = inhibition) at 1uM” value stood at 9.1%. In the case of `CC1CCCCN1C(=O)Nc1cccc(Cl)c1` (centres unmarked), the “hERG current change (%, negative = inhibition) at 1uM” value was -1.17%. Under `CCOc1ccc(NS(=O)(=O)c2cc(C(=O)NCCCN3CCCC3=O)ccc2C)cc1` stands 9.73%. As for `CSc1ccccc1NC(=O)COC(=O)c1c[nH]c(=O)[nH]c1=O`, the “hERG current change (%, negative = inhibition) at 1uM” value was 11.2%.

`CC(OC(=O)CNC(=O)c1ccco1)C(=O)Nc1ccc(Cl)cn1` (centres unmarked): the “hERG current change (%, negative = inhibition) at 1uM” value is 10.4%.

In the case of `CC1(C)CC(=O)C=C(Nc2ccccc2N)C1`, the “hERG current change (%, negative = inhibition) at 1uM” value amounted to 3.42%. Regarding `COc1ccc2c(c1)CCC(C)N2S(=O)(=O)c1ccc(C2CNC(=O)C2)cc1` (centres unmarked), the “hERG current change (%, negative = inhibition) at 1uM” value amounted to 6.05%. As to `O=C(CCCn1c(=O)[nH]c2cc(Cl)ccc2c1=O)NC1CCCCCC1`, the “hERG current change (%, negative = inhibition) at 1uM” value came out at 0.147%. Under `Cc1nn(-c2ccc(F)cc2)c(Cl)c1/C=N/NC(=O)c1cccc(S(=O)(=O)N2CCCC2)c1` stands 7.64%. As for `Cc1ccc(-c2nc3ccccc3[nH]2)cc1NC(=O)c1sc2cc(Cl)ccc2c1Cl`, the figure is 22.3%; as for `CC(CC(=O)Nc1cccc(F)c1)S(=O)(=O)c1ccc2c(c1)NC(=O)CO2` (centres unmarked), 3.18%.

As for `Cc1cc(C)c(C)c(S(=O)(=O)N2CCN(c3ccccn3)CC2)c1C`, the “hERG current change (%, negative = inhibition) at 1uM” value was found to be 8.38%.

As for `CCOc1ccc(NC(=O)CN(C)C(=O)COc2cccc(CC)c2)cc1OCC`, the “hERG current change (%, negative = inhibition) at 1uM” value worked out at 0.0718%. For the compound `CC(C)n1c(NCCc2ccccc2)nc2c1c(=O)n(C)c(=O)n2C`, the “hERG current change (%, negative = inhibition) at 1uM” value was 9.37%. In the case of `Cc1ccc(C2CC(c3cccc(NS(C)(=O)=O)c3)=NN2S(C)(=O)=O)cc1` (centres unmarked), the “hERG current change (%, negative = inhibition) at 1uM” value is given as -8.33%. As for `Cc1nnc(NC(=O)CSc2nc(C(C)C)nc3ccccc23)s1`, the figure is 6.82%; as for `Cc1c(O)ccc(C(=O)COc2ccccc2F)c1O`, -0.438%; as for `CCOC(=O)CN1C(=O)SC(CC(=O)Nc2nccs2)C1=O` (centres unmarked), 12.1%. In the case of `COc1cc2c(cc1OC)CN(C1CCCN(Cc3cc(Cl)ccc3O)C1)CC2` (centres unmarked), the “hERG current change (%, negative = inhibition) at 1uM” value is given as 2.35%. Turning to `O=C(C[n+]1cccc2ccccc21)c1ccc([N+](=O)[O-])cc1.[Br-]`, the “hERG current change (%, negative = inhibition) at 1uM” value is -53.8%.

With `CCC(Sc1nc(C)cc(C)n1)C(=O)Nc1ccc(Cl)cn1` (centres unmarked), the “hERG current change (%, negative = inhibition) at 1uM” value is recorded as -2.98%. As for `CCOc1ccc(NC(=O)C(Cc2ccccc2)N2C(=O)c3cccc4cccc(c34)C2=O)cc1` (centres unmarked), the figure is 14.6%.

On to `CC(C)Oc1ccc(C(=O)CCN2CCCCC2)cc1`, for which the “hERG current change (%, negative = inhibition) at 1uM” value is -9.8%.

Regarding `O=C(c1cccnc1)N1CCN(S(=O)(=O)c2ccc3ccccc3c2)CC1`, the “hERG current change (%, negative = inhibition) at 1uM” value was -20.9%. Under `CN(C)S(=O)(=O)c1ccc2c(c1)nc(CCC(=O)NCc1ccc(Cl)cc1)n2C` stands -2.33%. As for `Cc1cc(/C=C(\C#N)C(=O)NCc2ccco2)c(C)n1-c1ccc(C(=O)O)cc1`, the figure is 13.5%. As for `CCOC(=O)c1c(NC(=O)CSc2nnc(C)s2)sc2c1CCN(C)C2`, the figure is -13.6%; as for `CCOc1ccc(S(=O)(=O)NC(Cc2c[nH]c3ccccc23)C(=O)O)cc1` (centres unmarked), 10.9%. For `N#Cc1ccc(CSc2nnc(Nc3ccccc3)s2)cc1`, the “hERG current change (%, negative = inhibition) at 1uM” value came out at 10.2%. On to `O=C(NCC(c1ccco1)N1CCCCC1)c1cc2c(s1)CCCC2` (centres unmarked), for which the “hERG current change (%, negative = inhibition) at 1uM” value was 16.8%. As for `O=C1CS/C(=N\NC(=O)c2ccccc2)N1`, the figure is 12.6%; as for `CCCn1cnc2cc(NCc3ccc(Br)cc3)ccc21`, -5.04%. Take `CCOC(=O)C1(CC2CCCCO2)CCN(Cc2nc3ccccc3[nH]2)CC1` (centres unmarked): the “hERG current change (%, negative = inhibition) at 1uM” value is given as -1.68%.

Turning to `COc1cc(/C=N/NC(=S)NC2CC3C=CC2C3)cc(OC)c1OC` (centres unmarked), the “hERG current change (%, negative = inhibition) at 1uM” value is listed as 8.93%. Under `Cc1cc(NC(=O)c2cnn3c(C(F)F)cc(-c4ccccc4)nc23)no1` stands -0.0889%.

As to `Fc1ccccc1COc1ccc(/C=N/NC(=S)NCc2ccccc2)cc1`, the “hERG current change (%, negative = inhibition) at 1uM” value was found to be 8.87%.

For the compound `CC1CCCCC1NC(=O)Cn1[nH]c(=O)c2ccccc2c1=O` (centres unmarked), the “hERG current change (%, negative = inhibition) at 1uM” value was -0.249%. For the compound `CC(C)CC(=O)NC(=S)Nc1cc(C(F)(F)F)ccc1N1CCOCC1`, the “hERG current change (%, negative = inhibition) at 1uM” value amounted to 12.3%. As for `CC(NCc1cccs1)C(=O)Nc1cc(Cl)cc(Cl)c1` (centres unmarked), the figure is 6.71%; as for `Cc1ccc2occ(/C=N/NC(N)=S)c(=O)c2c1`, 12%; as for `CCCCCCN1C=C/C(=C\C=C(C#N)C#N)c2ccccc21`, -2.75%.

Regarding `CN1C(=O)NC2C1N(S(C)(=O)=O)CCN2S(C)(=O)=O` (centres unmarked), the “hERG current change (%, negative = inhibition) at 1uM” value worked out at 16.4%. As for `Cc1ccc2c(c1)-c1c(ssc1=S)C(C)(C)N2C(=O)CN1C(=O)c2ccccc2C1=O`, the figure is 16.3%; as for `COc1ccc(CN2C(=O)c3cccnc3C2=O)cc1S(=O)(=O)N1CCOc2ccc(Cl)cc21`, 7.25%; as for `Cc1ccccc1NC(=O)Cn1c([N+](=O)[O-])cnc1C`, 21.1%. As for `Cc1ccc(-c2noc(-c3ccccc3C(=O)N3CCCC3)n2)cc1`, the figure is -1.86%; as for `CC(C(=O)O)N1CCCCC1.Cl` (centres unmarked), -4.62%; as for `COc1ccc(C(=O)COc2ccccc2C#N)cc1`, -0.403%.

In the case of `COc1ccc(/C=N/NC(=O)CN(C2=NS(=O)(=O)c3ccccc32)c2ccccc2)cc1OC`, the “hERG current change (%, negative = inhibition) at 1uM” value is 1.67%.
